According to the RNAGym collection of RNA variant scans (doi:10.1093/nar/gkz1192):
The source gives no read counts; variants with many changes may rest on few reads.

B1: CPEB3 Ribozyme (parent)
chain: UAACAGGGGGCCACAGCAGAAGCGUUCACGUCGCAGCCCCUGUCAGAUUCUGGUGAAUCUGCGAAUUCUGCUGUAUAUCUC

Variants of: B1
Assay: self-cleavage, relative activity (ratio to wild type); higher = more cleavage; in vitro, sequencing
Outline: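 Relative activity compares each variant's cleaved/total read fraction with that of the unmutated ribozyme. To get these fractions, barcoded CPEB3 ribozyme libraries from rounds of error-prone PCR were transcribed with T7 RNA polymerase for 5 hours at 37°C and then given 15 min of DNase I treatment before EDTA was added. The RNAs were reverse transcribed with template switching and sequenced on Illumina, and DNA sequencing linked barcodes to variants. A minimum of 5 reads applied, and three batches were averaged.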
Work on U1A A20U A35C A75C C81A yielded a self-cleavage of 0.38.
U1A A20U U25C A35G U51A U72A gave a self-cleavage of 0.13.
U1A A20U U31A gave a self-cleavage of 0.35.
For U1A A20U U41C A56G A57U U58C U60A, the self-cleavage was 0.11.
With U1A A20U U49A G63U U80A the self-cleavage was 0.13.
U1A A20U U60C C62U gave a self-cleavage of 0.1.
Work on U1A A20U U60C U72A yielded a self-cleavage of 0.14.
With U1A A20U U60C U76C A77U the self-cleavage was 0.09.
Work on U1A A20U U67A U69C U72A yielded a self-cleavage of 0.26.
In the case of U1A A20U U72A, the self-cleavage is reported as 0.18.
For U1A A21G A45G U58A U80C, the self-cleavage was 0.08.
U1A A21G C27U U54C gave a self-cleavage of 0.36.
In the case of U1A A21G G42U A56G, the self-cleavage is reported as 0.12.
For U1A A21G U31C A65G, the self-cleavage was 0.08.
For U1A A21G U41A A47G A65G, the self-cleavage was 0.2.
With U1A A21U A35U U58C U60C C71G the self-cleavage was 0.04.
U1A A21U A57G U67C showed a self-cleavage of 0.11.
For U1A A28C C81A, the self-cleavage was 0.65.
In the case of U1A A28G A35C U66C, the self-cleavage is reported as 0.11.
U1A A28G U41A A45G gave a self-cleavage of 0.4.
In the case of U1A A28G U49C, the self-cleavage is reported as 0.18.
Variant U1A A28G U54A has a self-cleavage of 0.54.
U1A A28G U69C gave a self-cleavage of 0.23.
Variant U1A A28U U41A U43A has a self-cleavage of 0.06.
Variant U1A A28U U60A has a self-cleavage of 0.2.
Variant U1A A35G A45G A47G G52C U67C has a self-cleavage of 0.68.
Variant U1A A35G A56U has a self-cleavage of 1.21.
Work on U1A A35G A64G U80C yielded a self-cleavage of 1.28.
Variant U1A A35G U41G U76A has a self-cleavage of 0.24.
Work on U1A A35G U48C U60A yielded a self-cleavage of 0.45.
With U1A A35U A77G the self-cleavage was 0.38.
Variant U1A A35U A77U has a self-cleavage of 0.41.
Work on U1A A35U U41A A56G A57G A64U yielded a self-cleavage of 0.07.
U1A A35U U41C G70A C79U showed a self-cleavage of 0.21.
Work on U1A A35U U72G yielded a self-cleavage of 0.41.
With U1A A45G A64U the self-cleavage was 0.21.
In the case of U1A A45G A65G, the self-cleavage is reported as 0.3.
U1A A45G A65U gave a self-cleavage of 0.29.
Work on U1A A45G U58G U72C yielded a self-cleavage of 0.18.
Variant U1A A45G U60A U67A U74C has a self-cleavage of 0.24.
U1A A45G U78A gave a self-cleavage of 0.57.
With U1A A45U U58C U60C the self-cleavage was 0.17.
Variant U1A A47G A57G U76C has a self-cleavage of 0.45.
Variant U1A A47G U51C has a self-cleavage of 0.58.
With U1A A47G U60C the self-cleavage was 0.14.
Work on U1A A47G U60C U72C yielded a self-cleavage of 0.15.
For U1A A56G A64G U66A U69C, the self-cleavage was 0.15.
Work on U1A A56G A64G U67A U74G yielded a self-cleavage of 0.35.
Variant U1A A56G U58C has a self-cleavage of 0.32.
U1A A56G U66A C68U gave a self-cleavage of 0.23.
For U1A A56G U72C, the self-cleavage was 0.83.
U1A A56G U74A A75G gave a self-cleavage of 1.05.
Variant U1A A56U U72A has a self-cleavage of 0.46.
U1A A57G A77U gave a self-cleavage of 1.15.
For U1A A57G U76A A77U, the self-cleavage was 0.74.
U1A A64G U69C G70C showed a self-cleavage of 0.32.
With U1A C4A A15U C32U A57U U72C the self-cleavage was 0.32.
Variant U1A C4A A35G A64G U72C has a self-cleavage of 1.26.
For U1A C4G A75G, the self-cleavage was 1.14.
With U1A C4U A21G U41A A57G U60C the self-cleavage was 0.16.
In the case of U1A C4U A45G C62U U66C, the self-cleavage is reported as 0.37.
In the case of U1A C4U G19A G30C U60C U74A, the self-cleavage is reported as 0.49.
U1A C11A A28G A57G A64U U72C gave a self-cleavage of 0.09.
Variant U1A C11G C12U A56G U69C has a self-cleavage of 0.12.
For U1A C11G C37U U72A, the self-cleavage was 0.12.
In the case of U1A C11G G16U A47G U48C U49A U72A, the self-cleavage is reported as 0.04.
In the case of U1A C11G G63A A77G, the self-cleavage is reported as 0.2.
With U1A C11G U26A C40U U41C A47G U69C the self-cleavage was 0.13.
With U1A C11G U41C U48C U69C the self-cleavage was 0.23.
Work on U1A C11G U48C U67C yielded a self-cleavage of 0.12.
In the case of U1A C11G U58A, the self-cleavage is reported as 0.24.
U1A C11U A18G U69A A77U showed a self-cleavage of 0.12.
For U1A C11U A18U U31A A45U U80C, the self-cleavage was 0.06.
For U1A C11U A20G, the self-cleavage was 0.34.
U1A C11U A45G U48C U51C A65U U72A showed a self-cleavage of 0.06.
U1A C11U G52U showed a self-cleavage of 0.5.
U1A C11U U31C U74A showed a self-cleavage of 0.67.
Variant U1A C11U U41C has a self-cleavage of 0.58.
Work on U1A C12A A18G A20U U80A yielded a self-cleavage of 0.08.
In the case of U1A C12A C44U C62A U78C, the self-cleavage is reported as 0.12.
With U1A C12U A28G U41C A57G the self-cleavage was 0.83.
Work on U1A C12U G16A U43A U60C A64G U72C yielded a self-cleavage of 0.09.
For U1A C14U A45U G52A, the self-cleavage was 0.81.
U1A C14U U25G A35U U49C gave a self-cleavage of 0.06.
Work on U1A C17U U31C U69C yielded a self-cleavage of 0.19.
In the case of U1A C23A U26C A28U U54C U67C U78C, the self-cleavage is reported as 0.09.
For U1A C23G U31C A65G, the self-cleavage was 0.09.
For U1A C23U G73A, the self-cleavage was 0.84.
For U1A C23U U25C, the self-cleavage was 0.09.
U1A C27U G36C C40U A65G G70A gave a self-cleavage of 0.13.
Variant U1A C29U U54A U67A A75G has a self-cleavage of 0.07.
In the case of U1A C32A U54A A56G U69A U78C, the self-cleavage is reported as 0.14.
U1A C32U A45C A57U showed a self-cleavage of 0.09.
For U1A C34G A64U A75U, the self-cleavage was 0.16.
For U1A C37G C40U U51A, the self-cleavage was 0.23.
U1A C37U U43A A64U showed a self-cleavage of 0.15.
Work on U1A C38G U49C G70U yielded a self-cleavage of 0.08.
U1A C38U U49C U78C gave a self-cleavage of 0.29.
For U1A C39U G63A, the self-cleavage was 0.55.
For U1A C40A U41C, the self-cleavage was 0.08.
Variant U1A C40U A65U U72A U80C has a self-cleavage of 0.16.
Variant U1A C44U G53A U58G has a self-cleavage of 0.1.
In the case of U1A C44U U51C, the self-cleavage is reported as 0.35.
U1A C44U U60A C62U A64U U72C U78C showed a self-cleavage of 0.05.
Work on U1A C59A U72C yielded a self-cleavage of 0.25.
With U1A G6A A20G U31C C34U A64U U78C the self-cleavage was 0.13.
For U1A G6A A21G A35G U58C U76A, the self-cleavage was 0.08.
U1A G6A A21G C23A U26C A64U showed a self-cleavage of 0.06.
U1A G6A A56G gave a self-cleavage of 0.42.
Work on U1A G6A C12A A13G U25C U41A G70A yielded a self-cleavage of 0.06.
In the case of U1A G6A G9A U48C U54C A64G U66C, the self-cleavage is reported as 0.06.
U1A G6U U67C U76A showed a self-cleavage of 0.16.
U1A G7A A15G A18G U31C U41A A75U showed a self-cleavage of 0.29.
U1A G7A A20U U25C U41A U66C U78C gave a self-cleavage of 0.04.
With U1A G7C G8A A18U A65G U69A U74C the self-cleavage was 0.06.
U1A G7C U25C C39U U54A gave a self-cleavage of 0.26.
For U1A G7U C29U U72A, the self-cleavage was 0.14.
U1A G7U G10A A18U U26C U41A U76C showed a self-cleavage of 0.05.
For U1A G7U G52A, the self-cleavage was 0.4.
For U1A G7U U41C U43A U51C, the self-cleavage was 0.21.
U1A G8A C14U C44A showed a self-cleavage of 0.05.
In the case of U1A G8A C39A G73U, the self-cleavage is reported as 0.15.
In the case of U1A G8A G19C C38A U49C A75U, the self-cleavage is reported as 0.04.
In the case of U1A G8A G33U G52C A57G U60C U69C, the self-cleavage is reported as 0.05.
Variant U1A G8U A18G A64G has a self-cleavage of 0.18.
U1A G8U A21G U25C A28G U69A U74C gave a self-cleavage of 0.05.
Variant U1A G8U A35U U67A has a self-cleavage of 0.33.
Variant U1A G8U G10A U26C U60C U78C has a self-cleavage of 0.31.
For U1A G8U U31G C50U U51G U60C, the self-cleavage was 0.09.
For U1A G9A A15U A45C A57G, the self-cleavage was 0.06.
For U1A G9A A18G A21G U31A C32G, the self-cleavage was 0.13.
Work on U1A G9A A56U yielded a self-cleavage of 0.06.
For U1A G9A A57G, the self-cleavage was 0.24.
In the case of U1A G9A G10A U25C U31C U43C A75G, the self-cleavage is reported as 0.13.
Work on U1A G9A U26C A45G A47U U49A yielded a self-cleavage of 0.
Variant U1A G9A U26C A47U U49A U72A has a self-cleavage of 0.16.
U1A G9A U60C showed a self-cleavage of 0.18.
In the case of U1A G9A U60C A64U, the self-cleavage is reported as 0.15.
With U1A G9C A15U U76C the self-cleavage was 0.07.
Variant U1A G9U A13G A56U U74A has a self-cleavage of 0.07.
In the case of U1A G9U A56G C62U, the self-cleavage is reported as 0.17.
Variant U1A G9U G33U A45G C50G A57G G61A has a self-cleavage of 0.03.
With U1A G9U U80C the self-cleavage was 0.38.
Variant U1A G10A A13C A15U A28G U66C U67C has a self-cleavage of 0.24.
U1A G10A A35G showed a self-cleavage of 0.79.
In the case of U1A G10A A45U, the self-cleavage is reported as 0.31.
U1A G10A C23A A28G U72A U80C showed a self-cleavage of 0.06.
For U1A G10A G16U U31A U48C, the self-cleavage was 0.04.
U1A G10A U25C U51G U54C gave a self-cleavage of 0.
In the case of U1A G10U A18G A21G A64G, the self-cleavage is reported as 0.33.
Work on U1A G10U A21G U31A U66G yielded a self-cleavage of 0.02.
For U1A G10U A21G U31C A77G, the self-cleavage was 0.1.
U1A G16A A47G showed a self-cleavage of 0.28.
Variant U1A G16A U41C U51C U69C C71U has a self-cleavage of 0.2.
Work on U1A G16A U51C A57G yielded a self-cleavage of 0.16.
Work on U1A G16C C39A U49A U72G yielded a self-cleavage of 0.12.
Variant U1A G16U A35U U48C U72A has a self-cleavage of 0.1.
U1A G19A U26A U54C A57G A64G A77G showed a self-cleavage of 0.04.
With U1A G19U A47G U48A U80C the self-cleavage was 0.43.
For U1A G19U U41C G42C U43C, the self-cleavage was 0.27.
For U1A G22A A28C U41A, the self-cleavage was 0.2.
With U1A G30A A35C C40U A56C A75U the self-cleavage was 0.1.
U1A G30A A57G showed a self-cleavage of 0.19.
U1A G30C U31C A45G showed a self-cleavage of 0.15.
Variant U1A G30C U69A A77G U80C has a self-cleavage of 0.08.
Variant U1A G30U G46U A65G A75G has a self-cleavage of 0.06.
With U1A G33C U41A the self-cleavage was 0.21.
